Over roughly 2,900 compounds, “NF-kB SEAP reporter activity, fold change vs agonist alone” has its median near 0.99; the highest 2% begin near 2.6. The list shows a part of the results.
Experiments:
RAW-Dual [1] = test: NF-kB SEAP reporter activity, fold change vs agonist alone; higher = enhanced NF-kB activity; details: library stock concentration (final ~1000-fold dilution): 10 mM
Outline: (§1)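 After 50 nL of library stock was delivered by pin tool to RAW-Dual macrophages (50,000 cells/well, DMEM, 384-well plates), a PRR agonist was added 1 h later and the plates were kept at 37 °C, 5% CO2. Twenty hours later, IRF was read from supernatant by QuantiLuc luminescence and NF-κB by QuantiBlue absorbance at 620 nm. Reporter activity is stated as fold change over agonist-alone wells. Wells with IncuCyte confluency under 70% of agonist controls in both mask sets were counted as cytotoxic.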

RAW-Dual [2] = test: NF-kB SEAP reporter activity, fold change vs agonist alone; cytotoxicity flag (confluency mask): cytotoxic (confluency <70% of control); higher = enhanced NF-kB activity
Outline: as §1

RAW-Dual [3] = test: NF-kB SEAP reporter activity, fold change vs agonist alone; cytotoxicity flag (confluency mask): not cytotoxic; higher = enhanced NF-kB activity
Outline: as §1

[4] = agonist: ODN 1826 (TLR9) 0.5 ug/mL
[5] = agonist: Pam2CSK4 (TLR2/6) 0.1 ug/mL
[6] = agonist: Pam3CSK4 (TLR2/1) 0.1 ug/mL
[7] = cytotoxicity flag (confluency mask): not cytotoxic, agonist: Imiquimod (TLR7) […]
[8] = cytotoxicity flag (confluency mask): not cytotoxic, agonist: MPLA (TLR4) […]

## O=c1cc(N2CCOCC2)oc2c(-c3ccccc3)cccc12
RAW-Dual [1]; cytotoxicity flag (confluency mask): cytotoxic (confluency <70% of control), agonist: Imiquimod (TLR7) […]
  NF-kB SEAP reporter activity: 1.07
RAW-Dual [1]; cytotoxicity flag (confluency mask): cytotoxic (confluency <70% of control), agonist: MPLA (TLR4) […]
  NF-kB SEAP reporter activity: 1.63

## O=c1cc(N2CCOCC2)oc2c(-c3ccccc3)cccc12 (library stock concentration (final ~1000-fold dilution): 10 mM)
RAW-Dual [2]; agonist: LPS (TLR4) 0.1 ug/mL
  NF-kB SEAP reporter activity: 1.81
RAW-Dual [2]; [4]
  NF-kB SEAP reporter activity: 1.34
RAW-Dual [2]; [5]
  NF-kB SEAP reporter activity: 0.984
RAW-Dual [2]; [6]
  NF-kB SEAP reporter activity: 1.19

## C=CCOc1ccccc1OCC(O)CNC(C)C.Cl (stereo not drawn) (library stock concentration (final ~1000-fold dilution): 10 mM)
RAW-Dual [3]; agonist: LPS (TLR4) 0.1 ug/mL
  NF-kB SEAP reporter activity: 1.96
RAW-Dual [3]; [4]
  NF-kB SEAP reporter activity: 1.11
RAW-Dual [3]; [5]
  NF-kB SEAP reporter activity: 1.03
RAW-Dual [3]; [6]
  NF-kB SEAP reporter activity: 1.33

## C=CCOc1ccccc1OCC(O)CNC(C)C.Cl (stereo not drawn)
RAW-Dual [1]; [7]
  NF-kB SEAP reporter activity: 1.36
RAW-Dual [1]; [8]
  NF-kB SEAP reporter activity: 1.27

## CCOC(N)=O
RAW-Dual [1]; [7]
  NF-kB SEAP reporter activity: 0.941
RAW-Dual [1]; [8]
  NF-kB SEAP reporter activity: 0.993

## CCOC(N)=O (library stock concentration (final ~1000-fold dilution): 10 mM)
RAW-Dual [3]; agonist: LPS (TLR4) 0.1 ug/mL
  NF-kB SEAP reporter activity: 1.31
RAW-Dual [3]; [4]
  NF-kB SEAP reporter activity: 0.975
RAW-Dual [3]; [5]
  NF-kB SEAP reporter activity: 1.21
RAW-Dual [3]; [6]
  NF-kB SEAP reporter activity: 1.16

## CCc1c(N(CC)C2CCOCC2)cc2oc(C3CCN(C(C)C)CC3)cc2c1C(=O)NCc1c(C)cc(C)[nH]c1=O (library stock concentration (final ~1000-fold dilution): 10 mM)
RAW-Dual [3]; agonist: LPS (TLR4) 0.1 ug/mL
  NF-kB SEAP reporter activity: 1.13
RAW-Dual [3]; [4]
  NF-kB SEAP reporter activity: 0.983
RAW-Dual [3]; [5]
  NF-kB SEAP reporter activity: 1.04
RAW-Dual [3]; [6]
  NF-kB SEAP reporter activity: 0.941

## CCc1c(N(CC)C2CCOCC2)cc2oc(C3CCN(C(C)C)CC3)cc2c1C(=O)NCc1c(C)cc(C)[nH]c1=O
RAW-Dual [1]; [7]
  NF-kB SEAP reporter activity: 1.34
RAW-Dual [1]; [8]
  NF-kB SEAP reporter activity: 1.04

## COc1cc2ncnc(Nc3ccc(F)c(Cl)c3)c2cc1O
RAW-Dual [1]; [8]
  NF-kB SEAP reporter activity: 1.41

## COc1cc2ncnc(Nc3ccc(F)c(Cl)c3)c2cc1O (library stock concentration (final ~1000-fold dilution): 10 mM)
RAW-Dual [3]; agonist: LPS (TLR4) 0.1 ug/mL
  NF-kB SEAP reporter activity: 1.64
RAW-Dual [3]; [4]
  NF-kB SEAP reporter activity: 1.09
RAW-Dual [3]; [5]
  NF-kB SEAP reporter activity: 1.01
RAW-Dual [3]; [6]
  NF-kB SEAP reporter activity: 0.959

## Nc1cc(C(F)(F)F)c(-c2cc(N3CCOCC3)nc(N3CCOCC3)n2)cn1 (library stock concentration (final ~1000-fold dilution): 10 mM)
RAW-Dual [3]; agonist: LPS (TLR4) 0.1 ug/mL
  NF-kB SEAP reporter activity: 2.59
RAW-Dual [3]; [4]
  NF-kB SEAP reporter activity: 2.07
RAW-Dual [3]; [5]
  NF-kB SEAP reporter activity: 1.49
RAW-Dual [3]; [6]
  NF-kB SEAP reporter activity: 0.904

## Nc1cc(C(F)(F)F)c(-c2cc(N3CCOCC3)nc(N3CCOCC3)n2)cn1
RAW-Dual [1]; [7]
  NF-kB SEAP reporter activity: 1.71
RAW-Dual [1]; [8]
  NF-kB SEAP reporter activity: 1.63

## CC(=O)N=c1sc(S(N)(=O)=O)nn1C
RAW-Dual [1]; [7]
  NF-kB SEAP reporter activity: 0.903
RAW-Dual [1]; [8]
  NF-kB SEAP reporter activity: 1.01

## CC(=O)N=c1sc(S(N)(=O)=O)nn1C (library stock concentration (final ~1000-fold dilution): 10 mM)
RAW-Dual [3]; agonist: LPS (TLR4) 0.1 ug/mL
  NF-kB SEAP reporter activity: 1.38
RAW-Dual [3]; [4]
  NF-kB SEAP reporter activity: 0.959
RAW-Dual [3]; [5]
  NF-kB SEAP reporter activity: 1.34
RAW-Dual [3]; [6]
  NF-kB SEAP reporter activity: 1.09

## COCCCOc1ccnc(CS(=O)c2nc3ccccc3[nH]2)c1C (stereo not drawn)
RAW-Dual [1]; [8]
  NF-kB SEAP reporter activity: 0.959

## COCCCOc1ccnc(CS(=O)c2nc3ccccc3[nH]2)c1C (stereo not drawn) (library stock concentration (final ~1000-fold dilution): 10 mM)
RAW-Dual [3]; agonist: LPS (TLR4) 0.1 ug/mL
  NF-kB SEAP reporter activity: 1.31
RAW-Dual [3]; [4]
  NF-kB SEAP reporter activity: 1.11
RAW-Dual [3]; [5]
  NF-kB SEAP reporter activity: 1.14
RAW-Dual [3]; [6]
  NF-kB SEAP reporter activity: 0.792

## Cc1ccc(Sc2cncc3sc(C(N)=O)cc23)cc1 (library stock concentration (final ~1000-fold dilution): 10 mM)
RAW-Dual [3]; agonist: LPS (TLR4) 0.1 ug/mL
  NF-kB SEAP reporter activity: 2.89
RAW-Dual [3]; [6]
  NF-kB SEAP reporter activity: 3.34

## CC(C)NNC(=O)c1ccncc1
RAW-Dual [1]; [8]
  NF-kB SEAP reporter activity: 0.681

## CC(C)NNC(=O)c1ccncc1 (library stock concentration (final ~1000-fold dilution): 10 mM)
RAW-Dual [3]; agonist: LPS (TLR4) 0.1 ug/mL
  NF-kB SEAP reporter activity: 0.63
RAW-Dual [3]; [4]
  NF-kB SEAP reporter activity: 0.82
RAW-Dual [3]; [5]
  NF-kB SEAP reporter activity: 0.805
RAW-Dual [3]; [6]
  NF-kB SEAP reporter activity: 0.674
